Source: paper PMC4336329 (PLoS ONE, 2015)
About 2,200 (0.71%) of roughly 310,000 compounds showed an effect of 50% or more. The effect is printed as a negative number. The list shows a part of the results.

Target: human ether-à-go-go-related gene (hERG) potassium channel (human, UniProt Q12809)
Assay: primary screen, population patch clamp on CHO cells stably expressing hERG

human ether-à-go-go-related gene (hERG) potassium channel, sequence (Q12809 whole entry, looked up): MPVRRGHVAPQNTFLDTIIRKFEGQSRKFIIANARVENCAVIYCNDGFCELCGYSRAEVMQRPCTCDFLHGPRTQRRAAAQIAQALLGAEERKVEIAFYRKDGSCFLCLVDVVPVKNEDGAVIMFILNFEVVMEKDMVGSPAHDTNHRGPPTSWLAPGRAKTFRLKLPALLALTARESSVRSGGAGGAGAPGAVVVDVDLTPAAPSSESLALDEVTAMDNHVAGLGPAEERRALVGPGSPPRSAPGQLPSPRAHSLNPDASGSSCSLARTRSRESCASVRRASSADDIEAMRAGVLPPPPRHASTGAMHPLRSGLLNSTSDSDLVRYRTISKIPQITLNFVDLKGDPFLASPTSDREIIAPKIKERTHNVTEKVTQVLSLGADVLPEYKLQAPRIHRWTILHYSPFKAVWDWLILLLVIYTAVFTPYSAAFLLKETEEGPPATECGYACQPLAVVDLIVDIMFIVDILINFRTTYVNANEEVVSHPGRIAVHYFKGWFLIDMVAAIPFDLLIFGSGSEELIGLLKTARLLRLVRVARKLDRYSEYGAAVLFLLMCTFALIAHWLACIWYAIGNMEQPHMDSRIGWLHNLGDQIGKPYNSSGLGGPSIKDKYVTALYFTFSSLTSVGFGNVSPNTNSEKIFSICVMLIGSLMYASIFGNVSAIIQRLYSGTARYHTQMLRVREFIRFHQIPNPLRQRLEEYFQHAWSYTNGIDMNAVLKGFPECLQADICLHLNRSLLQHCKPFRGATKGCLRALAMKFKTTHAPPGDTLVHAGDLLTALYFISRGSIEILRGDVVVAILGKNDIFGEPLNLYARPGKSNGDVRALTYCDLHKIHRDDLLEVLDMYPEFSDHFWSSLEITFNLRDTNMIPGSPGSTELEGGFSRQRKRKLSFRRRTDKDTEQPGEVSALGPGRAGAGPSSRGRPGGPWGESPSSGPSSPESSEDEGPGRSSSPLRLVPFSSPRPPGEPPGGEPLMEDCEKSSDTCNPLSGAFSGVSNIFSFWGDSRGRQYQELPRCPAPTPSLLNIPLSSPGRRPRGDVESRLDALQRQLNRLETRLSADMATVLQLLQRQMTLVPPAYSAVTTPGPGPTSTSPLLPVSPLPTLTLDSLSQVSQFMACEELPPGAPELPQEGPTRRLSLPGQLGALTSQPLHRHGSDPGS

Question: How did the “hERG current change (%, negative = inhibition) at 1uM” value turn out when `CCCCOc1ccc(/C(N)=N/O)cc1` was run?
Answer: The value was 3.05%.

Question: Which “hERG current change (%, negative = inhibition) at 1uM” value does the source give for `CCOc1ccc(NC(=O)c2c(NC(=O)CN3CCN(C)CC3)sc3c2CCC3)cc1` here?
Answer: The value was -28.2%.

Question: `O=C(Nc1ccnn1C1CCN(Cc2cccc(O)c2)CC1)C1CCCC1` was tested. Which “hERG current change (%, negative = inhibition) at 1uM” value did it give?
Answer: The value was -14.2%.

Question: For `O=C(COC(=O)CCc1ccc(S(=O)(=O)N2CCOCC2)cc1)NC(=O)NC1CCCCC1`, which “hERG current change (%, negative = inhibition) at 1uM” value is on record?
Answer: Its value is 10.2%.

Question: `CSc1cccc(NC(=S)Nc2ccc(F)cc2)c1` was tested. Which “hERG current change (%, negative = inhibition) at 1uM” value did it give?
Answer: Its value is 11.6%.

Question: For `Cc1ccc(C(=O)CN(C(=O)c2ccc(Cl)c(Cl)c2)N2C(=O)C3C4C=CC(C4)C3C2=O)cc1` (stereo not shown), which “hERG current change (%, negative = inhibition) at 1uM” value is on record?
Answer: The value was 12.5%.

Question: How did the “hERG current change (%, negative = inhibition) at 1uM” value turn out when `COc1cc(OC)cc(C(=O)Nn2cc(C(=O)Nc3ccccc3F)c3ccccc3c2=O)c1` was run?
Answer: The value was -5.09%.

Question: Which “hERG current change (%, negative = inhibition) at 1uM” value does the source give for `CCCCN(C(=O)CC1OC(=O)c2ccccc21)c1c(N)n(CCCC)c(=O)[nH]c1=O` (stereo not shown) here?
Answer: The value was 15.5%.

Question: Which “hERG current change (%, negative = inhibition) at 1uM” value does the source give for `O=C(Nc1ccc(S(=O)(=O)N2CCCCC2)cc1)c1cccnc1Cl` here?
Answer: The value was 17.1%.

Question: With `O=C(c1ccccc1)N1CCN(Cc2c[nH]c3ccccc23)CC1` as the compound, how does the “hERG current change (%, negative = inhibition) at 1uM” value read?
Answer: The value was -1.02%.

Question: Which “hERG current change (%, negative = inhibition) at 1uM” value does the source give for `O=C1CCCN1CCCNc1ncnc2sccc12` here?
Answer: Its value is 3.95%.

Question: Which “hERG current change (%, negative = inhibition) at 1uM” value does the source give for `Cn1nc(C(=O)NCc2ccccn2)c2ccccc2c1=O` here?
Answer: Its value is 4.74%.

Question: For `CCOc1ccc(C(=O)NCC(=O)NCC(c2cccs2)N2CCOCC2)cc1` (stereo not shown), which “hERG current change (%, negative = inhibition) at 1uM” value is on record?
Answer: The value was 15.2%.

Question: For `CCN(CC)C1=NC=CC(c2ccccc2)=CC1C` (stereo not shown), which “hERG current change (%, negative = inhibition) at 1uM” value is on record?
Answer: The value was -34%.

Question: For `CCOC(=O)N1CCN(C(=O)c2ccc(C)c(S(=O)(=O)Nc3ccccc3)c2)CC1`, which “hERG current change (%, negative = inhibition) at 1uM” value is on record?
Answer: Its value is 17%.

Question: Which “hERG current change (%, negative = inhibition) at 1uM” value does the source give for `COc1ccccc1CNS(=O)(=O)c1ccc2c(c1)N(C(C)=O)CC(C)S2` (stereo not shown) here?
Answer: The value was 11%.

Question: Which “hERG current change (%, negative = inhibition) at 1uM” value does the source give for `CCOC(=O)C1=C(C)NC(=O)NC1c1ccco1` (stereo not shown) here?
Answer: Its value is 8.11%.

Question: `CCCN1CCN(S(=O)(=O)c2ccc3c(c2)CC(C)N3C(=O)C2CC2)CC1` (stereo not shown) was tested. Which “hERG current change (%, negative = inhibition) at 1uM” value did it give?
Answer: The value was 16.3%.

Question: Which “hERG current change (%, negative = inhibition) at 1uM” value does the source give for `CCOC(=O)c1ccc(N2CC(O)=C(c3nc4ccccc4c(=O)[nH]3)C2=N)cc1` here?
Answer: The value was 3.34%.

Question: `N=c1c2c(ncn1CCN1CCOCC1)Oc1cc(O)ccc1C2c1ccccc1` (stereo not shown) was tested. Which “hERG current change (%, negative = inhibition) at 1uM” value did it give?
Answer: The value was -5.86%.

Question: Which “hERG current change (%, negative = inhibition) at 1uM” value does the source give for `CCC(C)C(=O)NCCc1ccc(S(N)(=O)=O)cc1` (stereo not shown) here?
Answer: Its value is 12%.

Question: Which “hERG current change (%, negative = inhibition) at 1uM” value does the source give for `COC(=O)[C@@H](NC(=O)Nc1cccc(OC)c1)C(C)C` here?
Answer: Its value is 7.64%.

Question: How did the “hERG current change (%, negative = inhibition) at 1uM” value turn out when `CCCc1cc(C(=O)Nc2cc(C)nn2-c2ccccc2)no1` was run?
Answer: The value was 9.97%.

Question: How did the “hERG current change (%, negative = inhibition) at 1uM” value turn out when `Cc1oc2ccc(O)cc2c1C(=O)c1ccc(F)cc1` was run?
Answer: Its value is 5.44%.

Question: With `O=C(COc1ccc(Cl)cc1)NNC(=O)c1ccc2c(=O)n3c(nc2c1)CCC3` as the compound, how does the “hERG current change (%, negative = inhibition) at 1uM” value read?
Answer: Its value is -1.63%.

Question: How did the “hERG current change (%, negative = inhibition) at 1uM” value turn out when `O=C(Nc1ccc(-n2cnnn2)cc1)C(c1ccccc1)c1ccccc1` was run?
Answer: Its value is 5.11%.

Question: Which “hERG current change (%, negative = inhibition) at 1uM” value does the source give for `Cc1ccc(-n2nnnc2SCC(=O)N2CCN(C(=O)c3ccco3)CC2)c(C)c1` here?
Answer: Its value is -38.8%.

Question: Which “hERG current change (%, negative = inhibition) at 1uM” value does the source give for `NS(=O)(=O)c1cccc(NC(=O)c2cccs2)c1` here?
Answer: Its value is 19%.

Question: How did the “hERG current change (%, negative = inhibition) at 1uM” value turn out when `Cc1nc2ccccn2c1C(=O)CSc1ccccc1Cl` was run?
Answer: The value was -2.69%.

Question: How did the “hERG current change (%, negative = inhibition) at 1uM” value turn out when `CCCCn1cnc2cc(NCc3ccncc3)ccc21` was run?
Answer: Its value is 9.76%.

Question: With `CN(C)CCNC(=O)c1ccc(COCC(F)(F)F)cc1` as the compound, how does the “hERG current change (%, negative = inhibition) at 1uM” value read?
Answer: The value was 7.92%.

Question: How did the “hERG current change (%, negative = inhibition) at 1uM” value turn out when `O=C(O)c1ccc2c(=O)n3c(nc2c1)/C(=C/c1ccc(Cl)cc1Cl)CC3` was run?
Answer: The value was 8.65%.

Question: `Cc1ccc(NC(=O)C2CCN(S(=O)(=O)c3ccc(N4CCCC4=O)cc3)CC2)cc1Cl` was tested. Which “hERG current change (%, negative = inhibition) at 1uM” value did it give?
Answer: Its value is 16.6%.

Question: `O=C(CSCCc1ccccn1)Nc1ccccn1` was tested. Which “hERG current change (%, negative = inhibition) at 1uM” value did it give?
Answer: Its value is 6.12%.

Question: `CCN1C(=O)N[C@@H](c2ccco2)C(C(=O)OC)=C1C` was tested. Which “hERG current change (%, negative = inhibition) at 1uM” value did it give?
Answer: Its value is 17.4%.

Question: With `CC1(C)CC(=O)C(C=NCCN2CCN(C(=O)Cc3ccc(Cl)cc3)CC2)=C(O)C1` as the compound, how does the “hERG current change (%, negative = inhibition) at 1uM” value read?
Answer: Its value is -19.6%.

Question: For `Cc1cccc(-n2c(SCC(=O)NCC3CCCO3)nc3ccccc3c2=O)c1C` (stereo not shown), which “hERG current change (%, negative = inhibition) at 1uM” value is on record?
Answer: The value was 0.772%.

Question: Which “hERG current change (%, negative = inhibition) at 1uM” value does the source give for `CC(=O)c1ccc2noc(-c3ccc(Cl)cc3)c2c1` here?
Answer: Its value is 11%.

Question: With `CCOC(=O)C1CCN(C/C=C/c2ccccc2OC)CC1` as the compound, how does the “hERG current change (%, negative = inhibition) at 1uM” value read?
Answer: Its value is -0.831%.

Question: For `COc1ccc(Cn2c(-c3ccco3)nc3oc4cc(OC)ccc4c(=O)c3c2=O)cc1`, which “hERG current change (%, negative = inhibition) at 1uM” value is on record?
Answer: The value was -40.5%.

Question: How did the “hERG current change (%, negative = inhibition) at 1uM” value turn out when `CCOC(=O)CC1C(=O)NCCN1C(=O)NC1CCCCC1` (stereo not shown) was run?
Answer: The value was 7.87%.

Question: `CC(C)CC1NC(=O)c2ccccc2-n2c1nc1cc(F)ccc1c2=O` (stereo not shown) was tested. Which “hERG current change (%, negative = inhibition) at 1uM” value did it give?
Answer: The value was 5.49%.

Question: How did the “hERG current change (%, negative = inhibition) at 1uM” value turn out when `Cn1ccnc1CC(O)(c1ccccc1)c1ccccc1` was run?
Answer: Its value is 2.99%.
